# The supplement of paper PMC8728848
# The other results are listed elsewhere or left out.
# B1: Onconase (Rana pipiens), P22069 (protein)
# chain: QDWLTFQKKHITNTRDVDCDNIMSTNLFHCKDKNTFIYSRPEPVKAICKGIIASKNVLTTSEFYLSDCNVTSRPCKYKLKKSTNKFCVTCENQAPVHFVGVGSC
# Legend:
# Experiment in all cases: glycan array binding signal (z-score within array); higher = stronger binding
# Conditions in all cases: glycan notation: IUPAC condensed, linker removed
# [1] = molecular target: Neu5Ac(a2-3)Gal(b1-3)GalNAc(b1-3)Gal(a1-4)Gal(b1-4)Glc
# Outline: (§1)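 Columns mapping to the same glycan were averaged after glycan names were converted to IUPAC-condensed notation. The data come from 3228 arrays in the Consortium for Functional Glycomics database, limited to those with an available protein sequence. Binding is reported as a within-array Z-score averaged across arrays of one protein sequence and across linkers.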
# [2] = molecular target: Neu5Ac(a2-3)Gal(b1-3)GalNAc(b1-4)[Neu5Ac(a2-3)]Gal(b1-4)Glc
# Outline: as §1
# [3] = molecular target: Neu5Ac(a2-3)Gal(b1-3)GalNAc6S
# Outline: as §1
# [4] = molecular target: Neu5Ac(a2-3)Gal(b1-3)GlcNAc
# Outline: as §1
# [5] = molecular target: Neu5Ac(a2-3)Gal(b1-3)GlcNAc(b1-3)Gal(b1-4)GlcNAc
# Outline: as §1
# [6] = molecular target: Neu5Ac(a2-3)Gal(b1-3)GlcNAc6S
# Outline: as §1
# [7] = molecular target: Neu5Ac(a2-3)Gal(b1-3)[Fuc(a1-4)]GlcNAc
# Outline: as §1
# [8] = molecular target: Neu5Ac(a2-3)Gal(b1-3)[Fuc(a1-4)]GlcNAc(b1-3)Gal(b1-4)[Fuc(a1-3)]GlcNAc
# Outline: as §1
# [9] = molecular target: Neu5Ac(a2-3)Gal(b1-3)[Neu5Ac(a2-3)Gal(b1-4)]GlcNAc
# Outline: as §1
# [10] = molecular target: Neu5Ac(a2-3)Gal(b1-3)[Neu5Ac(a2-6)]GalNAc
# Outline: as §1
# Neu5Ac(a2-3)Gal(b1-4)Glc = molecular target: Neu5Ac(a2-3)Gal(b1-4)Glc
# Outline: as §1
# [11] = molecular target: Neu5Ac(a2-3)Gal(b1-4)GlcNAc
# Outline: as §1
# [12] = molecular target: Neu5Ac(a2-3)Gal(b1-4)GlcNAc(b1-3)Gal(b1-4)GlcNAc
# Outline: as §1
# [13] = molecular target: Neu5Ac(a2-3)Gal(b1-4)GlcNAc(b1-3)Gal(b1-4)GlcNAc(b1-3)Gal(b1-4)GlcNAc
# Outline: as §1
# [14] = molecular target: Neu5Ac(a2-3)Gal(b1-4)GlcNAc(b1-3)Gal(b1-4)[Fuc(a1-3)]GlcNAc
# Outline: as §1
# [15] = molecular target: Neu5Ac(a2-3)Gal(b1-4)GlcNAc6S
# Outline: as §1
# [16] = molecular target: Neu5Ac(a2-3)Gal(b1-4)[Fuc(a1-3)]GlcNAc
# Outline: as §1
# [17] = molecular target: Neu5Ac(a2-3)Gal(b1-4)[Fuc(a1-3)]GlcNAc(b1-3)Gal
# Outline: as §1
# [18] = molecular target: Neu5Ac(a2-3)Gal(b1-4)[Fuc(a1-3)]GlcNAc(b1-3)Gal(b1-4)GlcNAc
# Outline: as §1
# [19] = molecular target: Neu5Ac(a2-3)Gal(b1-4)[Fuc(a1-3)]GlcNAc(b1-3)Gal(b1-4)[Fuc(a1-3)]GlcNAc(b1-3)Gal(b1-4)[Fuc(a1-3)]GlcNAc
# Outline: as §1
# [20] = molecular target: Neu5Ac(a2-3)Gal(b1-4)[Fuc(a1-3)]GlcNAc6S
# Outline: as §1
# [21] = molecular target: Neu5Ac(a2-3)Gal6S(b1-4)GlcNAc
# Outline: as §1
# [22] = molecular target: Neu5Ac(a2-3)Gal6S(b1-4)[Fuc(a1-3)]GlcNAc
# Outline: as §1
# Neu5Ac(a2-3)GalNAc = molecular target: Neu5Ac(a2-3)GalNAc
# Outline: as §1
# [23] = molecular target: Neu5Ac(a2-3)GalNAc(b1-4)GlcNAc
# Outline: as §1
# [24] = molecular target: Neu5Ac(a2-3)[GalNAc(b1-4)]Gal(b1-4)Glc
# Outline: as §1
# [25] = molecular target: Neu5Ac(a2-3)[GalNAc(b1-4)]Gal(b1-4)GlcNAc
# Outline: as §1
# [26] = molecular target: Neu5Ac(a2-3)[Neu5Ac(a2-6)]GalNAc
# Outline: as §1
# [27] = molecular target: Neu5Ac(a2-6)Gal(b1-4)GlcNAc
# Outline: as §1
# [28] = molecular target: Neu5Ac(a2-6)Gal(b1-4)GlcNAc(b1-2)Man(a1-3)[Neu5Ac(a2-6)Gal(b1-4)GlcNAc(b1-2)Man(a1-6)]Man(b1-4)GlcNAc(b1-4)GlcNAc
# Outline: as §1
# [29] = molecular target: Neu5Ac(a2-6)Gal(b1-4)GlcNAc(b1-3)Gal(b1-4)GlcNAc
# Outline: as §1
# [30] = molecular target: Neu5Ac(a2-6)Gal(b1-4)GlcNAc(b1-3)Gal(b1-4)[Fuc(a1-3)]GlcNAc(b1-3)Gal(b1-4)[Fuc(a1-3)]GlcNAc
# Outline: as §1
# [31] = molecular target: Neu5Ac(a2-6)Gal(b1-4)GlcNAc6S
# Outline: as §1
# Neu5Ac(a2-6)GalNAc = molecular target: Neu5Ac(a2-6)GalNAc
# Outline: as §1
# [32] = molecular target: Neu5Ac(a2-6)GalNAc(b1-4)GlcNAc
# Outline: as §1
# Neu5Ac(a2-8)Neu5Ac = molecular target: Neu5Ac(a2-8)Neu5Ac
# Outline: as §1
# [33] = molecular target: Neu5Ac(a2-8)Neu5Ac(a2-3)Gal(b1-4)Glc
# Outline: as §1
# [34] = molecular target: Neu5Ac(a2-8)Neu5Ac(a2-3)[GalNAc(b1-4)]Gal(b1-4)Glc
# Outline: as §1
# [35] = molecular target: Neu5Ac(a2-8)Neu5Ac(a2-8)Neu5Ac
# Outline: as §1
# [36] = molecular target: Neu5Ac(a2-8)Neu5Ac(a2-8)Neu5Ac(a2-3)Gal(b1-4)Glc
# Outline: as §1
# [37] = molecular target: Neu5Ac(a2-8)Neu5Ac(a2-8)Neu5Ac(a2-3)[GalNAc(b1-4)]Gal(b1-4)Glc
# Outline: as §1
# [38] = molecular target: Neu5Ac(a2-8)Neu5Ac(a2-8)Neu5Ac(a2-8)Neu5Ac(a2-3)[GalNAc(b1-4)]Gal(b1-4)Glc
# Outline: as §1
# [39] = molecular target: Neu5Ac9Ac(a2-6)Gal(b1-4)GlcNAc
# Outline: as §1
# [40] = molecular target: Neu5Gc(a2-3)Gal(b1-3)GlcNAc
# Outline: as §1
# [41] = molecular target: Neu5Gc(a2-3)Gal(b1-3)[Fuc(a1-4)]GlcNAc
# Outline: as §1
# Neu5Gc(a2-3)Gal(b1-4)Glc = molecular target: Neu5Gc(a2-3)Gal(b1-4)Glc
# Outline: as §1
# [42] = molecular target: Neu5Gc(a2-3)Gal(b1-4)GlcNAc
# Outline: as §1
# [43] = molecular target: Neu5Gc(a2-3)Gal(b1-4)[Fuc(a1-4)]GlcNAc
# Outline: as §1
# [44] = molecular target: Neu5Gc(a2-6)Gal(b1-4)GlcNAc
# Outline: as §1
# Neu5Gc(a2-6)GalNAc = molecular target: Neu5Gc(a2-6)GalNAc
# Outline: as §1
binder,measurement,setting,value
B1,glycan array binding signal (z-score),[1],0.792
same,glycan array binding signal (z-score),[2],0.926
same,glycan array binding signal (z-score),[3],0.697
same,glycan array binding signal (z-score),[4],0.072
same,glycan array binding signal (z-score),[5],0.087
same,glycan array binding signal (z-score),[6],0.383
same,glycan array binding signal (z-score),[7],1.03
same,glycan array binding signal (z-score),[8],0.876
same,glycan array binding signal (z-score),[9],0.929
same,glycan array binding signal (z-score),[10],1.05
same,glycan array binding signal (z-score),Neu5Ac(a2-3)Gal(b1-4)Glc,-0.037
same,glycan array binding signal (z-score),[11],-0.359
same,glycan array binding signal (z-score),[12],-0.254
same,glycan array binding signal (z-score),[13],2.53
same,glycan array binding signal (z-score),[14],-0.671
same,glycan array binding signal (z-score),[15],0.465
same,glycan array binding signal (z-score),[16],-0.979
same,glycan array binding signal (z-score),[17],-0.067
same,glycan array binding signal (z-score),[18],-0.952
same,glycan array binding signal (z-score),[19],0.618
same,glycan array binding signal (z-score),[20],-0.331
same,glycan array binding signal (z-score),[21],0.925
same,glycan array binding signal (z-score),[22],-1.47
same,glycan array binding signal (z-score),Neu5Ac(a2-3)GalNAc,0.276
same,glycan array binding signal (z-score),[23],1.14
same,glycan array binding signal (z-score),[24],0.049
same,glycan array binding signal (z-score),[25],1.88
same,glycan array binding signal (z-score),[26],0.016
same,glycan array binding signal (z-score),[27],0.51
same,glycan array binding signal (z-score),[28],1.79
same,glycan array binding signal (z-score),[29],0.701
same,glycan array binding signal (z-score),[30],0.772
same,glycan array binding signal (z-score),[31],-0.104
same,glycan array binding signal (z-score),Neu5Ac(a2-6)GalNAc,0.41
same,glycan array binding signal (z-score),[32],0.161
same,glycan array binding signal (z-score),Neu5Ac(a2-8)Neu5Ac,-0.984
same,glycan array binding signal (z-score),[33],-0.854
same,glycan array binding signal (z-score),[34],1.16
same,glycan array binding signal (z-score),[35],-1.76
same,glycan array binding signal (z-score),[36],0.033
same,glycan array binding signal (z-score),[37],2.14
same,glycan array binding signal (z-score),[38],2.71
same,glycan array binding signal (z-score),[39],-0.006
same,glycan array binding signal (z-score),[40],-0.003
same,glycan array binding signal (z-score),[41],1.6
same,glycan array binding signal (z-score),Neu5Gc(a2-3)Gal(b1-4)Glc,-0.538
same,glycan array binding signal (z-score),[42],-0.276
same,glycan array binding signal (z-score),[43],0.695
same,glycan array binding signal (z-score),[44],-2.71
same,glycan array binding signal (z-score),Neu5Gc(a2-6)GalNAc,-2.31
